Experimental data taken from the supplement of paper PMC4967469.
pIC50: −log10 of the molar value. IC50 is the fitted dose that halves viability relative to control wells, and lower means more sensitive; a fit beyond the top or the lowest dose is shown as a bound at that dose. The AUC spans the tested range (256-fold, ending at the top dose) of the same fit; the more sensitive the line, the further below 1. For part of these data: A top dose marked as inferred is not printed in the source and was worked back from the curve model. For part of these data: Where an entry number is given, a second screen of the drug exists; the two often differ.

Columns and labels:
Assay in all cases: Viability of human cancer cell lines after 72 h of drug (GDSC screen)
MG-132 = compound: CC(C)C[C@@H](C=O)NC(=O)[C@H](CC(C)C)NC(=O)[C@H](CC(C)C)NC(=O)OCc1ccccc1 [MG-132]; conditions: top dose 1 µM
Description: (§1)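 Human cancer cell lines in 384-well plates, medium with 10% serum, drug for 72 h over a 256-fold dose range (nine 2-fold or five 4-fold steps up to the top dose). Adherent lines were fixed and stained with the nucleic acid dye Syto60, suspension lines read with resazurin; signal relative to control wells, capped at 0 and 100%. One two-parameter sigmoid per drug and line, fitted in a mixed model over all curves with the slope shared within a line.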

AR-42 = compound: CC(C)[C@H](C(=O)Nc1ccc(C(=O)NO)cc1)c1ccccc1 [AR-42]; conditions: top dose 5.12 µM; top dose inferred
Description: as §1

GDC0941 = compound: CS(=O)(=O)N1CCN(Cc2cc3nc(-c4cccc5[nH]ncc45)nc(N4CCOCC4)c3s2)CC1 [GDC0941]; conditions: top dose 4 µM; screen: GDSC drug entry 1527; top dose inferred
Description: as §1

CEP-701 = compound: C[C@]12O[C@H](C[C@]1(O)CO)n1c3ccccc3c3c4c(c5c6ccccc6n2c5c31)CNC4=O [CEP-701]; conditions: top dose 2 µM; top dose inferred
Description: as §1

Pazopanib = compound: Cc1ccc(Nc2nccc(N(C)c3ccc4c(C)n(C)nc4c3)n2)cc1S(N)(=O)=O [Pazopanib]; conditions: top dose 8 µM
Description: as §1

SB 216763 = compound: Cn1cc(C2=C(c3ccc(Cl)cc3Cl)C(=O)NC2=O)c2ccccc21 [SB 216763]; conditions: top dose 10 µM; top dose inferred
Description: as §1

Cell Line	AUC (MG-132)	pIC50 (MG-132)	AUC (AR-42)	pIC50 (AR-42)	AUC (GDC0941)	pIC50 (GDC0941)	AUC (CEP-701)	pIC50 (CEP-701)	AUC (Pazopanib)	pIC50 (Pazopanib)	AUC (SB 216763)	pIC50 (SB 216763)
MZ1-PC (pancreas, adherent)	0.852	< 6.00	0.474	6.57	0.645	6.16	0.905	< 5.70	0.916	< 5.10	0.976	< 5.00
Mo-T (hairy cell leukaemia, suspension)	0.85	6.11	0.41	6.74	0.837	5.56	0.758	6.15	0.972	< 5.10	0.98	< 5.00
NALM-6 (B-cell leukaemia, suspension)	0.779	6.47	0.314	6.97	0.781	5.86	0.49	6.93	0.959	< 5.10	0.975	< 5.00
NAMALWA (Burkitt lymphoma, suspension)	0.697	6.70	0.087	> 7.70	0.831	5.70	0.619	6.60	0.984	< 5.10	0.986	< 5.00
NB6 (neuroblastoma, adherent)	0.888	< 6.00	0.404	6.79	0.973	< 5.40	0.796	5.92	0.891	< 5.10	0.948	< 5.00
NB10 (neuroblastoma, adherent)	0.882	< 6.00	0.584	6.27	0.853	5.52	0.683	6.40	0.987	< 5.10	0.987	< 5.00
NB12 (neuroblastoma, adherent)	0.807	6.13	0.299	7.15	0.769	5.69	0.78	5.94	0.957	< 5.10	0.928	< 5.00
NB13 (neuroblastoma, adherent)	0.702	6.67	0.307	7.01	0.966	< 5.40	0.728	6.29	0.982	< 5.10	0.902	< 5.00
NB(TU)1-10 (neuroblastoma, adherent)	0.898	6.02	0.432	6.67	0.992	< 5.40	0.908	< 5.70	0.993	< 5.10	0.98	< 5.00
NCI-H187 (small cell lung carcinoma, suspension)	0.987	< 6.00	0.529	6.41	0.987	< 5.40	0.815	5.91	0.963	< 5.10	0.987	< 5.00
NCI-H209 (small cell lung carcinoma, suspension)	0.934	< 6.00	0.986	< 5.29	0.926	< 5.40	0.586	6.66	0.961	< 5.10	0.98	< 5.00
NCI-H226 (lung squamous cell carcinoma, adherent)	0.987	< 6.00	0.469	6.58	0.854	5.47	0.873	< 5.70	0.963	< 5.10	0.986	< 5.00
NCI-H322M (lung adenocarcinoma, suspension)	0.971	< 6.00	0.719	5.80	0.931	< 5.40	0.983	< 5.70	0.987	< 5.10	0.969	< 5.00
NCI-H345 (small cell lung carcinoma, suspension)	0.975	< 6.00	0.47	6.58	0.956	< 5.40	0.946	< 5.70	0.99	< 5.10	0.99	< 5.00
NCI-H446 (small cell lung carcinoma, semi-adherent)	0.939	< 6.00	0.368	6.87	0.501	6.60	0.748	6.16	0.97	< 5.10	0.985	< 5.00
NCI-H524 (small cell lung carcinoma, suspension)	0.889	6.03	0.657	6.08	0.881	5.47	0.55	6.77	0.986	< 5.10	0.966	< 5.00
NCI-H716 (large intestine, suspension)	0.966	< 6.00	0.724	5.78	0.561	6.42	0.653	6.43	0.77	5.42	0.977	< 5.00
NCI-H720 (lung carcinoid, suspension)	0.988	< 6.00	0.949	< 5.29	0.789	5.79	0.735	6.26	0.992	< 5.10	0.992	< 5.00
NCI-H847 (small cell lung carcinoma, adherent)	0.798	6.43	0.225	7.21	0.767	5.91	0.632	6.57	0.983	< 5.10	0.991	< 5.00
NCI-H1092 (small cell lung carcinoma, suspension)	0.785	6.37	0.48	6.55	0.954	< 5.40	0.901	< 5.70	0.99	< 5.10	0.982	< 5.00
